In the supplement of paper PMC4166925:
± gives the standard deviation of the averaged measurements. Over roughly 33,000 sequences, “E-score (dimensionless, -0.5 to 0.5)” has its median near -0.049; the highest 2% begin near 0.37. Some of the results follow.

Test system: T1, PmTbr T-box DNA-binding domain (GST fusion)
T1 sequence: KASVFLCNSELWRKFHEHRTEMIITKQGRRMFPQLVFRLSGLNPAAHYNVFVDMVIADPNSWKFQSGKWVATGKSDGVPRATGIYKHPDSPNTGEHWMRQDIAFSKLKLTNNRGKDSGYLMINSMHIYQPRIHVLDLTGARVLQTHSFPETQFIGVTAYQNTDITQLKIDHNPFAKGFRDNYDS
Assay: PBM E-score of 8-mer (E-score (dimensionless, -0.5 to 0.5)); Tbr is Tbrain of the sea star Patiria miniata (Pm) or the sea urchin Strongylocentrotus purpuratus (Sp); higher = stronger binding preference; most listed sequences are background and not binding sites
Details: the construct has about 5 more residues each side
Procedure, shortened: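 Universal Agilent oligonucleotide arrays, made double-stranded by primer extension, were incubated with 200 nM GST-fused Tbr T-box DNA-binding domain in PBS (pH 7.5). The protein was expressed in BL21 E. coli at 20 °C and purified by glutathione affinity chromatography. After scanning and quantification, the Universal PBM Analysis Suite assigned an enrichment E-score to each ungapped 8-mer, averaged over duplicate arrays.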

Sequence	PBM E-score of 8-mer
GGGCGGCA	-0.0375 ± 0.038
CTGAATCC	-0.24 ± 0.035
AGCCTCAG	-0.207 ± 0.061
AGGAATCG	-0.196 ± 0.029
CCGAGCGG	-0.338 ± 0.06
CATGGTGC	0.166 ± 0.062
GTCATTTA	-0.12 ± 0.017
CACCGCGC	0.101 ± 0.062
AAGTTTAG	-0.117 ± 0.0039
AGGGTTTG	-0.237 ± 0.042
ATCACACG	0.39 ± 0.0083
ATTCTGAA	-0.326 ± 0.016
CGGTTTGA	-0.1932 ± 0.0019
CAGGAGCA	-0.0597 ± 0.011
GCGGCCGA	-0.186 ± 0.046
CATCGTCC	-0.2382 ± 0.00093
AAGACTGC	-0.312 ± 0.048
ACACAGCA	0.128 ± 0.013
TAAATAGA	-0.149 ± 0.035
AGCGACTG	-0.08637 ± 0.00016
AACAGACA	0.122 ± 0.024
AGATGCAA	-0.111 ± 0.021

Sequence	PBM E-score of 8-mer
AACAGCAG	-0.082 ± 0.056
CAATTCCG	0.0504 ± 0.045
GACAGACC	-0.00978 ± 0.051
AGATTCTC	0.0818 ± 0.056
ATCACGAC	0.0587 ± 0.036
AACAATAG	0.134 ± 0.014
CTGATCAG	-0.064 ± 0.014
CGTATCAA	-0.227 ± 0.023
GCACTTGA	0.206 ± 0.031
TGATTCCA	-0.261 ± 0.013
ACACCTTA	0.4762 ± 0.00075
ATGCGCTC	-0.196 ± 0.08
CACATGTC	0.198 ± 0.0032
ACATAAGA	-0.11 ± 0.064
ATTGTCGA	0.0764 ± 0.052
AATGCAGG	-0.116 ± 0.0066
ATGCGCCG	-0.0968 ± 0.08
AGTGCGCA	0.101 ± 0.031
CAGGAGCC	-0.2301 ± 0.00044
ACTACGAT	-0.0337 ± 0.054
GTGGCACA	0.2734 ± 0.0017
AGGTTGGC	0.195 ± 0.032

Sequence	PBM E-score of 8-mer
AGTGTACC	-0.115 ± 0.11
GCCGGCGC	0.0659 ± 0.035
CTGGTTCC	-0.0536 ± 0.033
CTTTTTTC	-0.0179 ± 0.069
CCGATGAA	-0.0706 ± 0.02
TAGCCCGA	-0.229 ± 0.0034
AGAGTCCT	-0.303 ± 0.013
GATCCTGC	-0.0776 ± 0.014
CACTTATG	0.277 ± 0.0068
GACCCAGA	-0.0686 ± 0.065
CCCGAAGC	-0.0227 ± 0.017
TACTGCCA	-0.0957 ± 0.0099
CGCGGGAG	0.0945 ± 0.013
TCTTCTCA	0.15 ± 0.017
ATTAAAAC	-0.0388 ± 0.015
GCGCCAAC	0.311 ± 0.00062
ACCAGAGT	0.0116 ± 0.026
ACAGTAAC	0.186 ± 0.054
CCCCTAGC	-0.164 ± 0.0039
GGCACGCA	0.0601 ± 0.003
CACTGCTA	0.137 ± 0.054
ACGCGGGG	-0.029 ± 0.024

Sequence	PBM E-score of 8-mer
AACTAGTG	0.0506 ± 0.076
CGTCCGAG	-0.212 ± 0.043
AGACCTAG	-0.307 ± 0.0034
CAATCCTA	-0.0617 ± 0.0016
AGTCGGGG	-0.135 ± 0.071
GGCTGACC	-0.159 ± 0.018
ATAGGCGA	0.081 ± 0.0078
CGTTAGTA	0.0504 ± 0.0066
GATAACCA	-0.0849 ± 0.004
AACAATCG	0.104 ± 0.077
CGGTCTAC	-0.1 ± 0.071
TCGGAGAA	-0.123 ± 0.034
CGACGAGC	-0.129 ± 0.077
ACTGGGGC	-0.0781 ± 0.041
CCTTAAGC	0.0667 ± 0.076
TCGAGCAA	-0.0555 ± 0.015
AGGACATG	-0.214 ± 0.0065
CGGACTTA	-0.211 ± 0.035
GCAGGCGA	0.15 ± 0.037
GACAGGTC	0.183 ± 0.051
CAGCGTTA	0.167 ± 0.044
TAAATAAA	-0.116 ± 0.1

Sequence	PBM E-score of 8-mer
ACTAAGTA	-0.253 ± 0.018
AGGTATGC	-0.0381 ± 0.013
AAGGGCGC	-0.0107 ± 0.013
CCGGCCAC	-0.035 ± 0.03
CATCTACC	-0.00721 ± 0.022
ATAGTGCG	0.158 ± 0.031
AACACGGA	-0.00512 ± 0.035
CAAAAATG	-0.0391 ± 0.15
AAAGGTTG	-0.0117 ± 0.044
CCTGACGC	0.205 ± 0.055
AGGACAGG	-0.139 ± 0.04
CTATTTGA	-0.308 ± 0.0073
AACTAGGA	-0.224 ± 0.004
GAAGATAC	-0.0567 ± 0.0084
TAATGTCA	-0.0155 ± 0.081
CCCACCCA	0.0945 ± 0.0051
AGTATTAT	-0.116 ± 0.014
AACTATGG	-0.182 ± 0.02
GCTAGGCC	-0.143 ± 0.074
AGAACTTC	-0.135 ± 0.029
ACCAGAGA	-0.0847 ± 0.0015
GTTAACGA	0.242 ± 0.016
